Measurements: PMC4336329 (PLoS ONE, 2015)
About 2,200 (0.71%) of roughly 310,000 compounds showed an effect of 50% or more. The effect is printed as a negative number. This is one part of the list.

target: human ether-à-go-go-related gene (hERG) potassium channel (human, UniProt Q12809); experiment: primary screen, population patch clamp on CHO cells stably expressing hERG
Sequence (Q12809 whole entry, looked up): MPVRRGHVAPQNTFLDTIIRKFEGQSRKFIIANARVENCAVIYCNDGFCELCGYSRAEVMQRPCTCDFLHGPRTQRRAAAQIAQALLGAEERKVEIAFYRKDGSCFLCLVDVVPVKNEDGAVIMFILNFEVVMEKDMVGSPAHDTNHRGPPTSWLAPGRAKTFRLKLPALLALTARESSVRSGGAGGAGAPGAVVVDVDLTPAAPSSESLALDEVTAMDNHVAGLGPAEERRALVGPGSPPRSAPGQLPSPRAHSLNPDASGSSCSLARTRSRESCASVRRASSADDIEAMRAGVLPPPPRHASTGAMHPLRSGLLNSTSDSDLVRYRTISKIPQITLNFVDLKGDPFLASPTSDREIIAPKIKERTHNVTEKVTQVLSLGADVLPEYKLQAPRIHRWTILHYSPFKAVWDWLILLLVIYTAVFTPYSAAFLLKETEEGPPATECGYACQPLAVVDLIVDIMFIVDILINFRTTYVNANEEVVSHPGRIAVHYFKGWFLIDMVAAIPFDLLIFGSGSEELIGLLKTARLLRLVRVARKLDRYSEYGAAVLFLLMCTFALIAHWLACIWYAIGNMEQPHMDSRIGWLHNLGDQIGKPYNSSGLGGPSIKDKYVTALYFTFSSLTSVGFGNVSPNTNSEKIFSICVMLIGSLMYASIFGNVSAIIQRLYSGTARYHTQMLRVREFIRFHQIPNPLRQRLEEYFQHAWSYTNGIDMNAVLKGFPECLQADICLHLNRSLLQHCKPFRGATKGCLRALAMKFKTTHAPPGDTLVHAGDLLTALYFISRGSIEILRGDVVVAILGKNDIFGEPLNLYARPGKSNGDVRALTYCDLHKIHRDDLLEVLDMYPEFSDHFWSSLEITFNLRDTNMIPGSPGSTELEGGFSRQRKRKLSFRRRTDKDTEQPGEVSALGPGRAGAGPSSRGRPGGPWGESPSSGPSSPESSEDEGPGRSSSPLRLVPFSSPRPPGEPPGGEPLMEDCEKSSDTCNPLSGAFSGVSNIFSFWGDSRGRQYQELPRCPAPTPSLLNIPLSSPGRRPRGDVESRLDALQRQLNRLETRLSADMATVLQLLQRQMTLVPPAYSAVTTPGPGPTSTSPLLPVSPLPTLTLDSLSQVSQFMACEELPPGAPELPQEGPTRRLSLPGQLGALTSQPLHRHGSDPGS

SMILES | hERG current change (%, negative = inhibition) at 1uM
Cc1ccc2nc(C)c3c(c2c1)N(c1ccccc1)CC3 | -70%
O=C(/C=C/c1ccccc1Cl)Nc1ccc(Cl)cn1 | 6.7%
CC1CN(CC(=O)NN=C(c2ccccc2)c2ccccc2)CC(C)O1 (stereo not drawn) | 9.32%
CN1CCN(C2=Nc3cc(Cl)ccc3Nc3ccccc32)CC1 | 11.9%
COCC(N)(c1ccccc1)c1nc2ccccc2n1C (stereo not drawn) | 2.88%
O=C(c1cccs1)N1CCCC(N2CCN(c3ccc(F)cc3)CC2)C1 (stereo not drawn) | -52.1%
CC1CN(Cc2ccccc2Cl)CC(C)O1 (stereo not drawn) | 11.4%
COc1cccc(CN(Cc2cccnc2)S(=O)(=O)c2ccc(-n3cnnn3)c(C)c2)c1 | -1.83%
CC(=O)c1ccc(OCC(O)COc2ccc(C(C)=O)cc2)cc1 | 2.57%
O=C(Cn1cnc2c(nnn2Cc2ccc(F)cc2)c1=O)Nc1cccc(F)c1 | 4.23%
CCCCS(=O)(=O)NC1=NCN(Cc2ccco2)CN1 | 17.7%
O=C(NCC1CCCO1)c1cc2c(=O)[nH]c3ccccc3c2s1 (stereo not drawn) | 1.21%
O=C(NCc1ccc(N2CCCC2=O)cc1)c1cn(CCc2ccccc2)nn1 | 6.98%
NNC(=O)CCN1CCCCC1 | 17.2%
Cc1ccc(C(=O)NCC(=O)Nc2cc(C)ccn2)cc1 | 11.5%
CCN(c1ccccc1)S(=O)(=O)c1cccc(C(=O)NCc2ccncc2)c1 | 2.78%
CC(=O)c1ccc(NC(=O)CSc2nc(=O)cc(N)n2-c2ccccc2)cc1 | -8.88%
CCc1ccc(CNC(=O)C2CC(=O)N(CCc3ccc(C)cc3)C2)cc1 (stereo not drawn) | 0.313%
O=C1CC(N2CCOCC2)C(=O)N1c1cc(Cl)cc(Cl)c1 (stereo not drawn) | 0.284%
COc1ccc(NC(=O)CN2CCN(c3ccc(F)cc3)CC2)cc1Cl | 13.2%
COc1ccccc1C(=O)NCCC(=O)Nc1nc2ccccc2[nH]1 | 7.2%
O=C1N=C(N2CCCC2)S/C1=C\c1cccc(Br)c1 | 8.12%

SMILES | hERG current change (%, negative = inhibition) at 1uM
CCN(CC)S(=O)(=O)c1ccc(O)c(C(=O)OCC(=O)Nc2ccc(OC(F)(F)F)cc2)c1 | -7.47%
COc1ccc(CN=C2NC(=O)CC(C(=O)Nc3ccccc3C)S2)cc1 (stereo not drawn) | 4.34%
COc1ccc(C(=O)N2N=C3CC(C)(C)OCC3C2c2ccccc2)cc1 (stereo not drawn) | -2.72%
CCCS(=O)(=O)c1c(S(=O)(=O)CCC)c2c(C)cccn2c1C(=O)N/N=C/c1cc(O)cc(O)c1 | 12.4%
CCN1CCN(c2ccc(NC(=O)c3cccc(F)c3)cc2Cl)CC1 | -8.27%
COc1ccc(OC)c(C2=NS(=O)(=O)N(C)C(C(=O)NCc3ccco3)=C2)c1 | 3.17%
Cc1nn(Cc2ccc(Cl)cc2Cl)c(Cl)c1/C=C/C(=O)OCC(=O)NCC(F)(F)F | 9.84%
CCCC(=O)Nc1cccc(-c2nc3ccccc3c(=O)o2)c1 | 9.33%
c1ccc(CCCNc2ncnc3nc[nH]c23)cc1 | -2.14%
CCOc1ccc(C2=NNC(c3cccs3)=Nc3ccc(OC)cc32)cc1 | -17.2%
CCOC(=O)c1cc2c(=O)n3ccccc3nc2n(Cc2ccco2)c1=NC(=O)c1ccc(OC)cc1 | -7.26%
CSc1nnc2c(n1)OC1(Nc3ccccc3-2)C(=O)Nc2ccccc21 (stereo not drawn) | 11.9%
COCCNC(=O)C(c1ccc(C)o1)N(C(=O)c1snc(C(N)=O)c1N)c1ccc(C)c(C)c1 (stereo not drawn) | 6.02%
CSc1cccc(NC(=O)c2c(Cl)cnn2C)c1 | 10.1%
Cc1ccc2nc(-c3ccc(N4C(=O)CC(N5CCN(CCO)CC5)C4=O)cc3)sc2c1 (stereo not drawn) | 4.5%
NS(=O)(=O)OCCCc1ccc(C(F)(F)F)cc1 | 6.75%
CC(=O)Oc1cccc(N2C(=O)C3C(C2=O)C2C=CC3C23CC3)c1 (stereo not drawn) | 1.89%
C/C(=N\NC(=O)c1cc2ccccc2cc1O)c1cccs1 | 17.7%
COc1cc(OC)c2c(C)cc(=O)oc2c1C(CCN1CCOCC1)c1ccc2c(c1)OCO2 (stereo not drawn) | -14.2%
CC#CCN(Cc1ccco1)C(=O)c1ccc(OC2CCN(Cc3ccccn3)CC2)cc1 | -2.9%
COC(=O)c1ccc(Nc2ccc3nonc3c2[N+](=O)[O-])cc1 | 19.1%
CNC(=S)NNC(=O)CNc1ccc(C)c(Cl)c1 | 11.5%

SMILES | hERG current change (%, negative = inhibition) at 1uM
Cn1c(=O)n(C)c2cc(N3CCCC3)c(NC(=O)c3cccc(F)c3)cc21 | 10.3%
c1coc(CNc2ncnc3nc[nH]c23)c1 | 21%
CCOC(=O)CNC(=O)Cn1cnc2c(nnn2-c2cccc(OC)c2)c1=O | 17.3%
COc1ccc2sc(-c3ccc(SC)cc3)c(C#CC(C)(C)O)c2c1 | 12.3%
COc1cccc(Cn2nnc(C(=O)Nc3cc(Cl)ccc3OC)c2N)c1 | 13%
O=C(Cn1c(SCC(=O)N2CCCc3ccccc32)nc2ccccc21)N1CCCC1 | -0.707%
COc1ccc(C(=O)NNC(=S)NC(=O)c2cccc([N+](=O)[O-])c2)cc1 | 20.4%
CCOc1ccc2c(CC)cc(=O)oc2c1OCC | 0.0088%
Cc1cc(C(=O)OCC(=O)c2ccc3c(c2)NC(=O)CO3)c2ccccc2n1 | 20.6%
O=C(CCC(=O)c1ccc(F)cc1)Nc1ccccc1Cl | 1.94%
CCOc1ccc2nc(SCC(=O)NCc3ccco3)sc2c1 | -15.8%
COc1ccccc1-c1nc(C(N)=O)c2[nH]c(=O)n(-c3cccc(C)c3)c2n1 | 10.9%
COc1ccc(S(=O)(=O)Nc2ccccc2C(=O)NC(C)C)cc1OC | 18.9%
COc1cc(OC)c(-n2c(C)cc(C=O)c2C)cc1Cl | -2%
CN(C)S(=O)(=O)N1CCC(Oc2ccc(C(=O)N3CCCCCCC3)cc2)CC1 | 15.4%
O=C(CN1C(=O)c2ccccc2C1=O)NC1CCCCC1 | 8.28%
COC(=O)c1sccc1NC(=S)N1CCN(c2ccc(F)cc2)CC1 | 10.6%
CCOC(=O)N1CCN(C(=O)CN(c2ccc(OC)cc2)S(C)(=O)=O)CC1 | 5.75%
CC(C)Cn1c2nc3ccccc3nc2c2c(=O)n(CCN3CCOCC3)cnc21 | -6.92%
CCCCNC(=O)CSc1nc2ccsc2c(=O)n1CCCC(=O)NCCc1ccc(S(N)(=O)=O)cc1 | 5.18%
O=C(c1ccc(NS(=O)(=O)c2cccs2)cc1)N1CCOCC1 | 13.8%
CC1=C(C(=O)NCc2ccccc2)C(c2cccs2)NC(=S)N1 (stereo not drawn) | 8.67%

SMILES | hERG current change (%, negative = inhibition) at 1uM
CCCCc1ccc(NC(=O)NCc2ccccn2)cc1 | -10.7%
Cc1ccc2c(CN3CCN(S(=O)(=O)c4ccccc4C(F)(F)F)CC3)cc(=O)oc2c1 | -15.1%
O=c1cc(CNC2CCCCC2)c2ccccc2[nH]1 | 14.6%
O=C(NC1CCN(CCc2c[nH]c3ccccc23)CC1)c1ccccc1 | -33.9%
COCCn1c(N)c(C(=O)OCc2ccccc2)c2nc3ccccc3nc21 | -0.574%
Cc1ccc(C)c2nc3sc(C(=O)N4CCCc5ccccc54)c(N)c3cc12 | -5.13%
CC(=O)c1ccc(S(=O)(=O)NCCc2csc(-c3cccnc3)n2)cc1 | 11.4%
CC(=O)N(c1ccccc1)C(C)c1nc(C#N)c(C#N)nc1C (stereo not drawn) | 17.3%
COC(=O)C1=CO[C@@H](OC2OC(CO)C(O)C(O)C2O)[C@@H]2C(CO)=CC[C@H]12 (stereo partly drawn) | 13.2%
CCOc1ccccc1NC(=O)CSc1c(C)n[nH]c1C | 12.5%
CC(C)N(Cc1nc(-c2ccc3c(c2)OCO3)no1)CC1CCC(=O)N1 (stereo not drawn) | 8.63%
COc1ccc(CN2C=C3C(=O)C(C)(OC(=O)C4CCCC4)C(=O)C=C3C=C2c2ccsc2)cc1 (stereo not drawn) | -2.57%
CCC(C)(C)NC(=O)c1ccc(Br)o1 | 7.92%
COc1cc(NS(=O)(=O)c2ccc(NC(=S)NC(=O)c3sc4ccccc4c3Cl)cc2)ncn1 | 5.38%
COC(=O)C1=C(c2ccc(S(C)(=O)=O)cc2)C[C@@H]2CC[C@H]1N2C(=O)NCc1cccc2ccccc12 | -45.5%
COCC(C)NCc1cc(Br)ccc1OC.O=C(O)C(=O)O (stereo not drawn) | 10.7%
C#Cc1ccc(CN2CCC(C(=O)Nc3ccc(Oc4ccccc4)nc3)CC2)cc1 | -8.69%
CCc1ccc(C(=O)COC(=O)C(CCSC)NC(=O)c2ccccc2)cc1 (stereo not drawn) | 7.2%
Cc1[nH]c2ccc(Br)cc2c(=O)c1CN1CCCCCC1 | -35.7%
[Cl-].[NH3+]CCCn1c(C(=O)c2ccc(Cl)cc2)c2ccc([N+](=O)[O-])cc2[n+]1[O-] | -47.1%
O=c1c(Cl)c(NS(=O)(=O)c2ccccc2)cnn1-c1ccccc1 | 9.3%
